The target in experiment [1] is T1, BDA1* HMHA2* ST-CDAN1 (human) (UniProt Q8IWY9).
T1 sequence: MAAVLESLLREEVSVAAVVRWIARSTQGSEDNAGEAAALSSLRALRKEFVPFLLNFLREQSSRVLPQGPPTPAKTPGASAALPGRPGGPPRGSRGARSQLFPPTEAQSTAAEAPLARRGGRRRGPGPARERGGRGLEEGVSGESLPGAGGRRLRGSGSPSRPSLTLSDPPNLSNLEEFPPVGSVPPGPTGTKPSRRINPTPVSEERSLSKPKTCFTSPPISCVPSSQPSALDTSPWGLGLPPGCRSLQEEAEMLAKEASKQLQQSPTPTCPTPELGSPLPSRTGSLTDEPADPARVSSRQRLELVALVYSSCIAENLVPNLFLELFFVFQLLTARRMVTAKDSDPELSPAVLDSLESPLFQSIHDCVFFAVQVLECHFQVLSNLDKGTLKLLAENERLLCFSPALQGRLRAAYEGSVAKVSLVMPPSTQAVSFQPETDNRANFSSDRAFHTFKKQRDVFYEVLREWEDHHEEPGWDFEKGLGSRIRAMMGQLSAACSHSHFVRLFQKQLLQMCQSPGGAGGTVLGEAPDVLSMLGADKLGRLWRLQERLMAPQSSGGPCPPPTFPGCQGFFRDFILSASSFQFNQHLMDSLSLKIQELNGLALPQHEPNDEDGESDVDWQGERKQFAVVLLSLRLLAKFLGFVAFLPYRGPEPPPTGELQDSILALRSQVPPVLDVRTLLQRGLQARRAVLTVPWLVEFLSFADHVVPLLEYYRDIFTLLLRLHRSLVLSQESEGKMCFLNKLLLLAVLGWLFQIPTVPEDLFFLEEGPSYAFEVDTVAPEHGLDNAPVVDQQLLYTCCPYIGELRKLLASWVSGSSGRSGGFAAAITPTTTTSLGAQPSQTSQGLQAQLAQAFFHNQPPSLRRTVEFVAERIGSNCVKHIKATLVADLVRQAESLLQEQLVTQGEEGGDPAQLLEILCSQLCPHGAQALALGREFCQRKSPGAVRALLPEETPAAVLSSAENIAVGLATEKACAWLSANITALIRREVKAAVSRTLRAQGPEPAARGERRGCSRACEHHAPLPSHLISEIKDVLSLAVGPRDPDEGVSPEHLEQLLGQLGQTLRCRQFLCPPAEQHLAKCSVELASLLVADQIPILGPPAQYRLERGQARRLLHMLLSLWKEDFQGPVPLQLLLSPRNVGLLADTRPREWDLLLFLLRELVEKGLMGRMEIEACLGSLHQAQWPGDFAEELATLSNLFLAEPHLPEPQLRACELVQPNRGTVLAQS
Put plainly: pull-down; Strep-Tactin pulldown of transiently transfected ST-CDAN1 variants from Flp-In 293 T-REx lysates; endogenous ASF1A, ASF1B and CDIN1 detected by immunoblotting; IP buffer with 1% Triton X-100, 1 hr at 4 °C.

The target of experiment [2] is T2, Strep-CDAN1 HMHA1* HMHA2* BDA2* (three elements mutated) (human) (UniProt Q8IWY9).
T2 sequence: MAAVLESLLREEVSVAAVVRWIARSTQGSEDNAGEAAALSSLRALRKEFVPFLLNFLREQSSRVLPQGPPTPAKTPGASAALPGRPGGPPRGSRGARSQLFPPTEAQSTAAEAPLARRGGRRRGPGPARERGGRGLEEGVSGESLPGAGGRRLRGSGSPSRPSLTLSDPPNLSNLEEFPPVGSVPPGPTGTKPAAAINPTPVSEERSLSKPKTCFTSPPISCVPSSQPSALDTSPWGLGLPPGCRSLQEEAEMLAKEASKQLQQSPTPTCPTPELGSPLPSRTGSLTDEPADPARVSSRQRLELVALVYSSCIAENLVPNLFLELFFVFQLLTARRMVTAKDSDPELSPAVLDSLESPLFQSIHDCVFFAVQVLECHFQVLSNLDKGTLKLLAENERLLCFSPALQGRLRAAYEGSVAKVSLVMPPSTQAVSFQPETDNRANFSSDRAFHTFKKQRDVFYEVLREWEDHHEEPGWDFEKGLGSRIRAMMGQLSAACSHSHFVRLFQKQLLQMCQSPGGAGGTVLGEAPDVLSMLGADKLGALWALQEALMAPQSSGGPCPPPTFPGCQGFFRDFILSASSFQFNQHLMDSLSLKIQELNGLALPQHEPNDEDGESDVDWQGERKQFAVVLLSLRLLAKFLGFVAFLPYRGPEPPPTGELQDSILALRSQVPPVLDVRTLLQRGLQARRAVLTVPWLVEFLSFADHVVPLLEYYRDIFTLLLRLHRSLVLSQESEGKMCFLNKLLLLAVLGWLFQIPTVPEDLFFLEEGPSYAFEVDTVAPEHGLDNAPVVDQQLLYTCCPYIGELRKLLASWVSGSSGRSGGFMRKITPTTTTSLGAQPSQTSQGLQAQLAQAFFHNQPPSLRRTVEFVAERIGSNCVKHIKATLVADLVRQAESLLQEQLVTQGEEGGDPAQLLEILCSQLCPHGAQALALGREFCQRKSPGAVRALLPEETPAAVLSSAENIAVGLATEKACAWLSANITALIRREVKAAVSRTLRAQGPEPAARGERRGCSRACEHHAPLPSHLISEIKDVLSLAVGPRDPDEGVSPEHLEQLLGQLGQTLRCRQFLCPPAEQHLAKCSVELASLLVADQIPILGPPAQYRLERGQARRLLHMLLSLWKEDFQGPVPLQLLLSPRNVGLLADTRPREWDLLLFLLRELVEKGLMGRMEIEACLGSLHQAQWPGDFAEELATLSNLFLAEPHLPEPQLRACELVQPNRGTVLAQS
The experiment is described as above.

No constants are given. Whether binding was seen depends on the method and setting. In cells and extracts the contact can be indirect. Some binding calls cover weakened binding; strength is not graded here.

B1: FLAG-tagged CDIN1 (F-CDIN1) (natural protein, UniProt Q9Y2V0 1-281, looked up)
chain: MILTKAQYDEIAQCLVSVPPTRQSLRKLKQRFPSQSQATLLSIFSQEYQKHIKRTHAKHHTSEAIESYYQRYLNGVVKNGAAPVLLDLANEVDYAPSLMARLILERFLQEHEETPPSKSIINSMLRDPSQIPDGVLANQVYQCIVNDCCYGPLVDCIKHAIGHEHEVLLRDLLLEKNLSFLDEDQLRAKGYDKTPDFILQVPVAVEGHIIHWIESKASFGDECSHHAYLHDQFWSYWNRFGPGLVIYWYGFIQELDCNRERGILLKACFPTNIVTLCHSIA
notes: C15orf41); cDNA synthesized by IDT; source: Expi293, transiently transfected, in lysate and purified in complexes (anti-FLAG, Strep-Tactin); not shown: 3xFLAG, N-terminal, kept
With B1, the binding result in experiment [1] and in experiment [2] was “binds” in each case.

The values are drawn from article PMC11911400, “Mechanism of ASF1 engagement by CDAN1” (Nature Communications, 2025).
